B1: chr12:57037365:57037366:-_ENSG00000110955_ENST00000262030|hu_hu|FALSE|FALSE (ssRNA)
RNA: GGGAGUUCUACAGUCCGACGAUCCUUGCCAACUCCAGCACCACCAAAAAGCCCAAUUUUGCCACCCUUGGCAUAGGGAGCUAGCAGAUCGACAACCUUGAUACCAGUCACCAGAAUUUCCUGCUCAACACUCAUUUCCAUGAACAACAGAGGAUUGAGCAUCA
B2: chr8:95500983:95500984:-_ENSG00000164944_ENST00000437199|hu_hu|hu_hu_hu_mus_True|38_48 (ssRNA)
RNA: GGGAGUUCUACAGUCCGACGAUCAGAACACAUCUAUCGAGUAAAGGACCGUACAUGACGGCCUCUACCACUGCCUCCACUAACAAAACUUUCCUCUUGAGCCUCCAUGCCGCUAUUUGUACUAGCCCAGGACGGUCCCAGGCCCAACAGAGGAUUGAGCAUCA
B3: chr7:56130949:56130950:+_ENSG00000146731_ENST00000540286|hu_hu|motif|central (ssRNA)
RNA: GGGAGUUCUACAGUCCGACGAUCUCACUGGAUAAAAGACCUGCUUUAUGUGUAUACACUUCAGUGCAAUUUUUAAAAAUACGGUAAUUUCAGAACUUCCAAAUUUCAACAGAUGCCAGUGUUCUCUCCUUUUUUCAUAUGGGACAACAGAGGAUUGAGCAUCA
B4: 37433538_37433658_8137_3pUTR_ENSMUSG00000026915_ENSMUST00000028279|mouse|control|control (ssRNA)
RNA: GGGAGUUCUACAGUCCGACGAUCCAAGGUACAAGAACUCCUCAAAGAAAAUGAGUCAACAGCAUCCUAAGCAUGCUUCCUAUAAUAACUUGUUCUUUACCAACAAACACACAAGCCUUGAAAACUUGAUUCUGGCUGUUGUAGCAACAGAGGAUUGAGCAUCA
B5: chr1:60041781:60041782:+_ENSMUSG00000041040_ENSMUST00000036540|mus_hu|mus_mus_mus_hu_False|58_78 (ssRNA)
RNA: GGGAGUUCUACAGUCCGACGAUCAAGUUUACAAUAGUAAAGUAAAUGCAGUAGUGGAAUGGCAAGUUUUAUUUUCCUUCCUAAAAGAAAAUCUUUAUAACCCAGUCCUAGUCUUGGACAUAGUGAAAGCUAUAAAUUCUGACUCAACAGAGGAUUGAGCAUCA
B6: chr13:42873578:42873579:+_ENSG00000023516_ENST00000025301|hu_hu|FALSE|FALSE (ssRNA)
RNA: GGGAGUUCUACAGUCCGACGAUCUUUAGCCAAUGACUUCUGCUGUCCAGAGCUAAUGAGAAUCUUUAAAUCAUGGGUUUCUAAAUGAUGACCAGUAACCGUCUGGGAAGCAGCAUCACACUGGCUCCUUAGCACAGUAAUGUUCAACAGAGGAUUGAGCAUCA

The other results are listed elsewhere or left out.

The target of this test is T1, UNK ZnF1-3 (human, UniProt Q9C0B0 31-174).
T1 sequence: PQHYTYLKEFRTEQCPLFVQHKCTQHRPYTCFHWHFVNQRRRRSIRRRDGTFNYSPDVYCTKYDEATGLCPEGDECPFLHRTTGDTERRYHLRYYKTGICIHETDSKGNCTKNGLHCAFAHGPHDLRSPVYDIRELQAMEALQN
Put plainly: nsRBNS (natural sequence RNA bind-n-seq); RBNS binding buffer (assumed for nsRBNS): 25 mM Tris pH 7.5, 150 mM KCl, 3 mM MgCl2, 0.01% Triton X-100, 500 ug/ml BSA, 20 U/ml SUPERase-In, 4 C; UNK is unkempt and MSI1 is Musashi-1; names of the RNAs are library labels; protein concentration not given here; high values mean tight binding.
On to B1, for which the binding signal is 1.53 enrichment R.

Regarding B2, the binding signal was 1.03 enrichment R.

Take B3: the binding signal was 1.45 enrichment R.

Take B4: the binding signal turned out to be 1.09 enrichment R.

In turn, B5 showed a binding signal of 0.637 enrichment R.

B6: the binding signal stood at 0.737 enrichment R.

These data come from PMC12136788.
